From the supplement of paper PMC10126150
Sequences with one replicate were seen in a single cluster, so their values are uncertain.
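Further: ATP exposure 15 min at 22 °C before imaging.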

Each sequence was assayed on ATP (assay: switch fluorescence ratio, 500 uM ATP over buffer (Cy3 cluster intensity, sum of 5 cycles each) (fold (ratio)); higher = stronger signal-on switching upon ATP binding; sequences stand for … in TCGTCGGCAGCGTCAGATGTGTATAAGAGACAGTTTTTTTTTTTTTTTTTTTTTTTTT…TC). Details: aptamer strand: ATP DNA aptamer (quencher-CACCTGGGGGAGTATTGCGGAGGAAGG + anchor), 100 nM annealed; ATP concentration: 500 uM; one replicate.
Outline: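 Five buffer/ATP imaging cycles were run on Cy3-labelled switching-strand clusters on a modified Illumina MiSeq flow-cell, with NaOH stripping and re-annealing between cycles. In each cycle, clusters annealed to 100 nM quencher-labelled ATP aptamer were imaged in selection buffer, then after 15 min with 500 uM ATP at 22 °C. Per cluster, the fluorescence ratio is summed target-cycle over summed buffer-cycle Cy3 intensity, averaged per switch-domain sequence. Only clusters within 100-1000 RFU were kept.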
TGTATTTACT was tested, and the switch fluorescence ratio was 0.998. TGTATTTCCC was tested, and the switch fluorescence ratio was 0.985. Sequence TGTCAAGCTA has a switch fluorescence ratio of 1.48. Work on TGTCAAGGGA yielded a switch fluorescence ratio of 1.02. For TGTCATACCT, the switch fluorescence ratio was 1.31. In the case of TGTCATAGAC, the switch fluorescence ratio was 1.04. TGTCATCTTT showed a switch fluorescence ratio of 0.991. For TGTCCAATTT, the switch fluorescence ratio was 1.04. Work on TGTCCCGGAT yielded a switch fluorescence ratio of 1.06. TGTCCCGTCA gave a switch fluorescence ratio of 1.01. In the case of TGTCGAAAGC, the switch fluorescence ratio was 1.3. TGTCGACCTC showed a switch fluorescence ratio of 1.03. TGTCGAGTCT gave a switch fluorescence ratio of 1.01. TGTCGAGTGT gave a switch fluorescence ratio of 1.01. With TGTCGCACAT the switch fluorescence ratio was 1.05. Work on TGTCGCGCTT yielded a switch fluorescence ratio of 1.07. Sequence TGTCGGAATC has a switch fluorescence ratio of 2.31. With TGTCGGCTT the switch fluorescence ratio was 1.08. With TGTCGTATTT the switch fluorescence ratio was 1.01. TGTCTAATAT was tested, and the switch fluorescence ratio was 1.03. With TGTCTCAAAC the switch fluorescence ratio was 0.998. In the case of TGTCTCGCAA, the switch fluorescence ratio was 4.5. TGTCTGCATC gave a switch fluorescence ratio of 1.51. For TGTCTGCCGT, the switch fluorescence ratio was 0.967. In the case of TGTCTGCTG, the switch fluorescence ratio was 1.06. TGTCTTAACA gave a switch fluorescence ratio of 1. Work on TGTCTTGCCT yielded a switch fluorescence ratio of 0.972. For TGTGAAAACC, the switch fluorescence ratio was 1. With TGTGAAAACT the switch fluorescence ratio was 1.04. TGTGAAAGTT showed a switch fluorescence ratio of 1.02. With TGTGAATCAT the switch fluorescence ratio was 0.988. With TGTGAATGAT the switch fluorescence ratio was 1.04. TGTGACTTTT gave a switch fluorescence ratio of 1.02. TGTGAGAAAT was tested, and the switch fluorescence ratio was 1.04. With TGTGAGACGA the switch fluorescence ratio was 1.04. TGTGAGCGTA showed a switch fluorescence ratio of 1.05. With TGTGAGGTAT the switch fluorescence ratio was 1.01. In the case of TGTGATCGTT, the switch fluorescence ratio was 0.995. For TGTGATGTGA, the switch fluorescence ratio was 0.963. For TGTGCAGGCG, the switch fluorescence ratio was 1.03. Sequence TGTGCATGTT has a switch fluorescence ratio of 0.989. TGTGCCACTT was tested, and the switch fluorescence ratio was 1.01. For TGTGCTACGG, the switch fluorescence ratio was 1.01. Work on TGTGCTTCGT yielded a switch fluorescence ratio of 1.04. Work on TGTGCTTGGA yielded a switch fluorescence ratio of 0.997. With TGTGGACTGC the switch fluorescence ratio was 0.962. For TGTGGAGACC, the switch fluorescence ratio was 1. Sequence TGTGGATGCC has a switch fluorescence ratio of 0.992. Sequence TGTGGCTTTG has a switch fluorescence ratio of 0.963. TGTGGGGTAC gave a switch fluorescence ratio of 1.04. TGTGGTCTTC showed a switch fluorescence ratio of 0.994. TGTGGTTTG gave a switch fluorescence ratio of 0.98. TGTGTCCTTC was tested, and the switch fluorescence ratio was 1.06. In the case of TGTGTCGGAG, the switch fluorescence ratio was 0.974. In the case of TGTGTCTTAT, the switch fluorescence ratio was 1.01. TGTGTGTTC was tested, and the switch fluorescence ratio was 1.01. TGTGTTCTTC showed a switch fluorescence ratio of 0.986. With TGTGTTTTGC the switch fluorescence ratio was 1.04. For TGTTAAA, the switch fluorescence ratio was 1.06. With TGTTAAAAG the switch fluorescence ratio was 0.976. In the case of TGTTAAACAT, the switch fluorescence ratio was 1.02. TGTTACACTG showed a switch fluorescence ratio of 1.04. With TGTTACAGCT the switch fluorescence ratio was 1.04. Sequence TGTTACCGAC has a switch fluorescence ratio of 1.31. TGTTACTATT showed a switch fluorescence ratio of 1.04. With TGTTAGATA the switch fluorescence ratio was 0.951. Work on TGTTAGCATG yielded a switch fluorescence ratio of 0.942. For TGTTAGCGAA, the switch fluorescence ratio was 1.01. TGTTCAAAC was tested, and the switch fluorescence ratio was 1.02. TGTTCACAAC was tested, and the switch fluorescence ratio was 0.994. With TGTTCATAG the switch fluorescence ratio was 1.04. Work on TGTTCGACTG yielded a switch fluorescence ratio of 0.926. In the case of TGTTCTGATA, the switch fluorescence ratio was 0.996. Sequence TGTTCTGATG has a switch fluorescence ratio of 0.984. TGTTGACGAT gave a switch fluorescence ratio of 1.02. Sequence TGTTGCAT has a switch fluorescence ratio of 1.02. Work on TGTTGCGACC yielded a switch fluorescence ratio of 1.04. TGTTGGAAAT was tested, and the switch fluorescence ratio was 0.982. Work on TGTTGTCAGC yielded a switch fluorescence ratio of 1.02. Sequence TGTTGTCCCC has a switch fluorescence ratio of 1.08. In the case of TGTTTCAGC, the switch fluorescence ratio was 1.03. With TGTTTCGTAT the switch fluorescence ratio was 0.986. In the case of TGTTTCTG, the switch fluorescence ratio was 1.01. For TGTTTGGCCC, the switch fluorescence ratio was 0.945. With TGTTTGTCAC the switch fluorescence ratio was 0.965. Sequence TGTTTTACAT has a switch fluorescence ratio of 0.98. TGTTTTCTAA showed a switch fluorescence ratio of 1.01. TGTTTTCTGC gave a switch fluorescence ratio of 1.01. In the case of TGTTTTTCGG, the switch fluorescence ratio was 0.984. For TTAAAAGCAC, the switch fluorescence ratio was 1.11. Work on TTAAAAGTAC yielded a switch fluorescence ratio of 1.1. Sequence TTAAAATTGA has a switch fluorescence ratio of 1. For TTAAACATGG, the switch fluorescence ratio was 0.996. Work on TTAAACGGAT yielded a switch fluorescence ratio of 1.01. TTAAAGAACT gave a switch fluorescence ratio of 1.01. With TTAAAGCGTA the switch fluorescence ratio was 1.04. TTAAATACGC showed a switch fluorescence ratio of 1.01. TTAAATATTG gave a switch fluorescence ratio of 0.994. Sequence TTAAATTACT has a switch fluorescence ratio of 1.04. TTAACAGACT gave a switch fluorescence ratio of 1.06.
